Assay results reported in PubChem BioAssay AID504832 (National Center for Advancing Translational Sciences (NCATS), 2011).
The campaign covered roughly 310,000 compounds. About 18,000 (5.8%) were called active. Inconclusive results, whose numbers are uncertain, are shown with a selection of clear calls. Calls come from the whole dose curve; as a rule, active = well fitted inhibition curve with a large enough effect; inconclusive = small, poorly fitted or top-dose-only effect, or another doubt; inactive = no such curve, though single readings can be large or run the other way. No potency is given beside an inconclusive call; the fits are too rough.

assay: Primary qHTS for delayed death inhibitors of the malarial parasite plastid, 48 hour incubation; settings: P. falciparum luciferase growth in erythrocytes; series mostly up to 28.7 µM
Method in brief: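 First compound was added to culture medium, then infected red cells at 0.1% parasitemia and 2% hematocrit (final). After incubation at 37 C under 5% CO2, luciferase detection reagent was dispensed and light output recorded.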
Potency is the fitted concentration of half-maximal effect; tags give direction and shape of the fitted curve.

Structure (SMILES)	Potency
O=C(CCS(=O)(=O)c1ccc(Br)cc1)Nc1ccc(Br)cc1F	inactive
O=C1CC(N2CCN(c3ccc(O)cc3)CC2)C(=O)N1c1ccc2c(c1)OCO2 (stereo unspecified)	inactive
COc1ccc2c3n(nc2c1)CCN=C3c1cc(Cl)c(N)c(Cl)c1	active: 13.1 µM
O=C(NC(=S)Nc1ccccc1)c1cc(-c2ccccc2)nc2ccccc12	inconclusive [inhibitor, partial curve, poor fit]
CCNC(=S)N1CCc2cc(OC)c(OC)cc2C1COc1ccc(OC)cc1 (stereo unspecified)	inconclusive [inhibitor, single point]
Cc1ccc(N2CC(C(=O)Nc3ccccc3C(=O)N3CCOCC3)CC2=O)cc1 (stereo unspecified)	inactive
Cc1cc(O)c(S(=O)(=O)c2ccccc2)c(C)c1NS(=O)(=O)c1ccccc1	inconclusive [inhibitor, single point]
O=C(NNC(=O)c1cc(Cl)ccc1O)c1cccc(S(=O)(=O)N2CCOCC2)c1	inconclusive [inhibitor, single point]
COc1cc(-c2nn3c(-c4ccccc4)nnc3s2)cc(OC)c1OC	inactive
Cc1cccc(N(C(=O)c2ccco2)C(C(=O)NC2CCCC2)c2cccnc2)c1C (stereo unspecified)	inconclusive [inhibitor, single point]
COc1ccc(-c2csc(N(Cc3ccco3)C(=O)c3cccs3)n2)cc1	inconclusive [inhibitor, single point]
O=C(Nc1cccc(S(=O)(=O)c2cccc(NC(=O)c3ccco3)c2)c1)c1ccco1	active: 13.1 µM
Cc1cc(OCc2nc3ccccc3s2)ccc1N	inactive
Cc1c(C)n(Cc2ccccc2)c2ncnc(NCCO)c12	inconclusive [inhibitor, partial curve, poor fit]
CCN(Cc1nc2ccccc2c(=O)[nH]1)C(=O)c1cc(C2CC2)nn1-c1ccccc1	inconclusive [inhibitor, single point]
COc1ccc(-c2c(-c3cc(OC)cc(OC)c3)n(C)c3ccc(-c4ccc(OC)cc4F)cc23)cc1	inactive
CCOc1ccc(OCCC(=O)N(CC(=O)Nc2ccccc2C(F)(F)F)Cc2ccco2)cc1	inconclusive [inhibitor, single point]
COCCNC(=O)c1ccc2c(=O)n(Cc3ccco3)c(SCC(=O)Nc3ccc(OC)cc3OC)nc2c1	inconclusive [inhibitor, partial curve]
CCOc1ccccc1NC(=O)C(C)N1C(=O)c2ccccc2S1(=O)=O (stereo unspecified)	inactive
Cc1ccc2nc(-c3ccc(NC(=O)c4ccco4)cc3)[nH]c2c1	inconclusive [inhibitor, single point]
Cc1cc(C)cc(C(=O)NCCN2CCOCC2)c1	inactive
Cc1ccc(S(=O)(=O)N2CCOCC2)cc1NC(=O)COC(=O)C1=COCCO1	inconclusive [inhibitor, single point]
N#Cc1ccc(NCC(=O)Nc2ccc(S(=O)(=O)N3CCCCC3)cc2)cc1	active: 9.28 µM

Structure (SMILES)	Potency
O=C(CSC1=NNC(c2ccccn2)S1)Nc1ccc(C(F)(F)F)cc1 (stereo unspecified)	inconclusive [inhibitor, full curve]
COc1cc(C=O)ccc1Oc1nc(Nc2ccc(F)cc2F)nc(N2CCOCC2)n1	inconclusive [inhibitor, partial curve, poor fit]
CN1CCN(c2ccc(Cl)cc2NC(=O)c2ccc([N+](=O)[O-])cc2)CC1	inconclusive [inhibitor, partial curve, poor fit]
COc1cccc(-c2nc(-c3ccc(NC(=O)Cc4ccccc4OC)cc3)no2)c1	inconclusive [inhibitor, single point]
N#Cc1cccc(C(c2nnnn2C2CCCC2)N2CCC(Cc3ccccc3)CC2)c1 (stereo unspecified)	active: 5.22 µM
CSCCC(NC(=O)c1cccc(C)c1)C(=O)OCC(=O)NC(=O)c1cccn1C (stereo unspecified)	inactive
O=C(CN(c1ccccc1Cl)S(=O)(=O)c1ccccc1)NCc1ccccc1	inconclusive [inhibitor, single point]
COc1ccccc1N1CCN(C2CCN(C3CCC(c4ccccc4)CC3)CC2)CC1 (stereo unspecified)	inconclusive [inhibitor, full curve]
Nc1c(C(=O)OCC(=O)NCc2ccccc2)[nH]c(=O)[nH]c1=O	inactive
CCN(CC)CCCn1c(SCC(=O)Nc2cccc(F)c2)nnc1-c1ccoc1C	inactive
Nc1c(C(=O)NCCCc2ccccc2)c2nc3ccccc3nc2n1Cc1cccs1	active: 11.7 µM
COc1cc(/C=N/NC(N)=S)cc(Br)c1OCc1ccccc1F	inactive
O=C(/C=C/c1ccc([N+](=O)[O-])s1)N1CCCC1	active: 13.1 µM
Cc1ccc(N(CC2CO2)S(=O)(=O)c2ccc([N+](=O)[O-])cc2)cc1 (stereo unspecified)	inactive
Cc1cc(C)c2nc(NC(=O)[C@@H](NC(=O)c3cccc(S(=O)(=O)N4CCOCC4)c3)C(C)C)sc2c1	active: 9.28 µM
C=CCOc1ccc(/C=N/NC(=O)CN(c2cc(Cl)ccc2OC)S(=O)(=O)c2ccc(C)c([N+](=O)[O-])c2)cc1	inconclusive [inhibitor, single point]
CN(C)c1nc(N(C)C)n(Cc2c(Cl)cccc2Cl)n1	inactive
CCOc1ccc(N(CC(=O)N2CCCCCC2)S(C)(=O)=O)cc1	inactive
CC1Cc2nc(SCC(=O)c3ccccc3)n(Cc3ccccc3)c(=O)c2S1 (stereo unspecified)	inconclusive [inhibitor, partial curve]
CC(=O)N1N=C(c2ccc(Cl)cc2)CC1c1ccco1 (stereo unspecified)	inactive
Cc1ccc(S(=O)(=O)N2c3ccccc3NC(=O)CC2C)cc1 (stereo unspecified)	inconclusive [inhibitor, partial curve, poor fit]
Cc1ccc(C(=O)N/N=C\c2ccc(-c3ccc([N+](=O)[O-])cc3)o2)cn1	inconclusive [inhibitor, partial curve]
Cn1c(=O)[nH]c(=O)c2c1nc(N1CCN(C(c3ccccc3)c3ccccc3)CC1)n2CCO	inconclusive [inhibitor, partial curve]
